From US6258839A, “Isolation of naturally occuring isoflavanone and some clinical uses thereof” (priority 1997, dated 2001)
pEC50, pIC50: −log10 of the molar value. Converted amounts (≈) assume the structure as drawn. “And” between values parts separate entries of the source, which are not always exact repeats. Identical values can stand only once. Like-named read-outs stand apart in the source and are kept apart here.

Legend:
[1] = biological target: T1, HIV-1 reverse transcriptase (Human immunodeficiency virus type 1 group M subtype B, UniProt P04585); assay: inhibition of recombinant reverse transcriptase, (3H)-TTP incorporation; format: biochemical
T1 construct: in vitro activity recombinant reverse transcriptase (RT)
Protocol: (§1) The binding of gp120 to CD4 was analyzed using an antigen-capture enzyme-linked immonosorbent assay (ELISA) from DuPont. All steps off the assay were carried out according to the manufacturer's protocols. The effect of the drugs on the in vitro activity recombinant reverse transcriptase (RT) was determined by a previously described method (Buckeit and Swanstron, AIDS RES HUMAN RETROVIRUSES, 7, 295-302, 1991). The assay measures the incorporation of (^3 H)-TTP to the artificial poly (rA): oligo (dT) or poly (rC): oligo (dG) homopolymer primer/template. Samples (5 μl) were blotted to DE81 paper, washed extensively with 5% dibasic sodium phosphate and then quantified on a Packard Matrix 9600 Direct Beta Counter. The compound 3'-Azido-3'deoxythymidine-5'-triphosphate served as a positive control for the inhibition for RT; and the absence of RT served as negative control.

[2] = tested on: HIV in monocytes/macrophages (Mono/Mac's); assay: in vitro anti-HIV activity in monocytes/macrophages; format: cell-based, HIV-1
HIV-1RF = assay: in vitro anti-HIV cytoprotection, HIV-1RF in CEM-SS; format: cell-based; conditions: for pEC50: Human immunodeficiency virus 1, CEM-SS
HIV-11118 = assay: microbe, parasite or virus in culture; format: cell-based, HIV-1; conditions: Human immunodeficiency virus 1
HIV-1 AZT^sen = assay: in vitro anti-HIV activity, AZT sensitive HIV-1; format: cell-based
PMBC's = assay: growth inhibition of PBMC's in anti-HIV test; format: cell-based; conditions: Homo sapiens
HIV-1 A17 = assay: in vitro anti-HIV activity, HIV-1 A17; format: cell-based; conditions: Human immunodeficiency virus 1
[3] = tested on: 2',3'-dideoxy-inosine (ddl) mutants; assay: activity against ddI mutants; format: cell-based, HIV
gp120-CD4 = biological target: T2, gp120-CD4 (UniProt P01730+P03375); assay: gp120-CD4 binding, antigen-capture ELISA
T2 construct: purchased DuPont
Protocol: as §1

[4] = stability in hydrochloric acid; format: physicochemical; conditions: for loss of parent compound: 37° C.
Protocol: In 0.1 N HCl, only 10% degradation was observed after 24 hours. Loss of PMZ-1 was associated with the appearance of an earlier eluting peak.

[5] = stability of solutions and solid; format: physicochemical
Protocol: It is very soluble in propylene glycol (PG), polyethylene glycol (PEG) 400 and soybean oil. These solvents may be useful in formulating cosolvents suitable for pharmaceutical applications. The ethanolic solutions has UV absorptions in the 290-300 nm range, useful for analytical work. Aqueous solutions for analytical work were prepared in HPCD and diluted with water to the required concentrations. The stock solutions were stable when incubated for 48 hours at 37° C. and when stored at room temperature.
Stock solutions in ethyl acetate have been used for TLC work over 8 months without decomposition.

[6] = tested on: viruses containing mutations in RT codons affecting NNRTIs; assay: activity against viruses with NNRTI resistance mutations; format: cell-based, HIV
MCF7 cell line = assay: NCI 60 cell line panel, MCF7; conditions: Homo sapiens
HIV-1 N119 = assay: in vitro anti-HIV activity, HIV-1 N119; format: cell-based; conditions: Human immunodeficiency virus 1
[7] = tested on: athlelet's foot fungal infection; assay: oral administration to inventor, athlete's foot; format: in vivo, human; conditions: 3×1 mg per day for three days, one person
HIV-1 DPS = assay: in vitro anti-HIV activity, HIV-1 DPS; format: cell-based; conditions: Human immunodeficiency virus 1
[8] = i.v., 20 mg/kg, PEG 400:water (50:50)

COc1c(O)cc(C2COc3cc(O)cc(O)c3C2=O)cc1CC=C(C)C (racemic) [PMZ-1]
appearance after toxicity (mice; 100 mg/kg in HPCD, 2 hours after drug): appear normal | CNS toxicity (mice; [8]): disorientation | seisures (mice; [8]): no seisures | neurotoxicity (mice; i.v., 100 mg/kg in HPCD): neurotoxicity | pIC50 ([1]; ID50, RT, template/primer rA/dT): 5.52 and 5.92 and 5.32 | pIC50 ([1]; ID50, RT, template/primer rC/dG): 7.37 | pIC50 ([1]; ID50, inhibition of RT activity in virons, rC/dG, Table 8): 7.14 | activity in Mo/Mo assays [2]: active | pEC50 ([2]; Human immunodeficiency virus 1, Mono/MAC's): 6.70 | pEC50 ([2]; Human immunodeficiency virus 1, monocytes/macrophages): > 6.00 | protection of the CEM-SS (HIV-1RF): good protection | pEC50 (HIV-1RF; CEM-SS): 6.96 | pEC50 (HIV-1RF; NCI AIDS anti-viral screen): 7.00 | pEC50 (HIV-11118): 6.80 | activity against azidothymidine sensitive virus (HIV-1 AZT^sen; AZT^sen): active | pEC50 (HIV-1 AZT^sen; Human immunodeficiency virus 1, HIV-1 AZT^sen): 6.89 | pIC50 (PMBC's): 4.32 | pEC50 (HIV-1 A17): 5.38 | activity against ddI mutants [3]: active | bioavailability after i.p. and s.c. administration (pharmacokinetics in mice; mice, i.p. and s.c., 50-100 mg/kg): some bioavailbility | elimination from plasma (pharmacokinetics in mice; mice, i.v.): eliminated rapidly | drug elimination compared with HPCD vehicle (pharmacokinetics in mice; mice, i.v., 20 mg/kg, PEG 400:water): much faster | presence in liver, kidneys and small intestine (pharmacokinetics in mice; mouse, i.v., 10 mg/kg, first 60 minutes): detected readily | oral bioavailability (pharmacokinetics in mice; oral): very low | compound found in the GI tract (pharmacokinetics in mice; oral, 250 mg/kg): substantial compound found in the GI tract | presence in urine (pharmacokinetics in mice; parenteral and non-parenteral administration): present in the urine | first-pass metabolism (pharmacokinetics in mice; possible metabolite peak in plasma after oral administration): suggestive of first-pass metabolism | concentration (pharmacokinetics in mice; read-out: drug plasma concentration, mice, i.v., 20 mg/kg, PEG 400:water, 5 minutes): 41 µM | concentration (pharmacokinetics in mice; read-out: plasma level at 180 minutes, mice, i.v., HPCD, 50 mg/kg, 180 minutes): 0.3 µM | gp 120-CD4 Binding (gp120-CD4): No Binding | rate of degradation ([4]; 0.1 N HCl, 60° C., 3 hours, vs 1.0 N HCl): slower | degradation ([4]; 0.1 N HCl, 24 hours): 10% | loss of parent compound ([4]; 1.0 N HCl, 3 hours): 20% | loss of parent compound ([4]; 1.0 N HCl, 24 hours): 90% | PMZ-1 not degraded ([4]; 1.0 N HCl, 60° C., 3 hours): 5% | stability of stock solutions ([5]; 48 hours at 37° C. and room temperature, aqueous HPCD): stable | stability of ethyl acetate stock solutions ([5]; TLC, without decomposition): over 8 months | stability at room temperature ([5]; several months, TLC): stable at room temperature for several months | activity against viruses with NNRTI mutations [6]: weak activity | GI50 (MCF7 cell line; MCF7): < 0.025 µg/mL | CC50 (MCF7 cell line; MCF7, read-out: LC50): 16.8 µg/mL (≈ 45.4 µM) | pEC50 (HIV-1 N119): 4.64 | effect on athlelet's foot fungal infection [7]: total cure | pEC50 (HIV-1 DPS): 6.01
